The target in the experiment is T1, human α-SNAP with an Avitag and a C-terminal 6xHis tag (human, UniProt P54920 1-295, biotin (in vitro biotinylated using BirA ligase; Avitag)).
T1 construct: alpha-soluble NSF attachment protein (α-SNAP), human, amplified from HEK 293 cDNA; The methods describe a single preparation; The biotinylated protein was captured on streptavidin tips for BLI; also called biotinylated α-SNAP; Avi-Tagged human α-SNAP; source: E. coli LEMO21(DE3), pET28b, purified; in vitro biotinylated with BirA ligase; not shown: Avitag, C-terminal, kept
T1 sequence (looked up): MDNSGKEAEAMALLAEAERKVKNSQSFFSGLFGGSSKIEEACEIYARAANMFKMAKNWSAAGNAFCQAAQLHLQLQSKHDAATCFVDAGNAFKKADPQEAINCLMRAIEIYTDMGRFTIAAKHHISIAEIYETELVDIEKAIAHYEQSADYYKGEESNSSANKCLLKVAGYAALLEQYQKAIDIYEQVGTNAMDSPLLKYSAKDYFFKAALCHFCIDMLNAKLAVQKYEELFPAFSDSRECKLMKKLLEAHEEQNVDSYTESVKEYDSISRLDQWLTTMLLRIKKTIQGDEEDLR
Nature of the experiment: BLI; Octet RED96, 25°C; 0.25 μM biotinylated α-SNAP loaded on streptavidin biosensor tips; analyte: purified Orai1 or Stim1 fragments at varying concentrations; PBS with 2 mg/ml BSA and 0.02% Tween-20; association 5 min, dissociation 10 min; double referencing; global fit to the 1:1 or 2:1 binding model. Conditions: both partners purified.

B1: Stim1 […], untagged (domain or fragment)
chain: not shown
notes: Stim1, human, […], amplified from the human YFP-Stim1 plasmid; Sub-cloned in the pSUMO vector; The SUMO tag was removed with Ulp1 and trapped on a HisTrap column; also called soluble Stim1 […]; purified human Stim1 […]; source: E. coli LEMO21(DE3), purified (HisTrap, Ulp1 cleavage, second HisTrap, ion exchange)
What is called Kd is the concentration at which binding is half-saturated. A higher Kd goes with lower affinity. As a reminder, the koff is the first-order rate constant of dissociation. Read a low koff as slow dissociation. Broadly, the kon is the rate constant with which the complex forms. Read a high kon as faster complex formation. Take B1: the affinity, expressed as Kd, was 158 ± 1.2 nM; the koff came out at 0.000422 s⁻¹; the kon was found to be 2680 ± 12.5 M⁻¹ s⁻¹.

Values taken from article PMC8519427, “High affinity associations with α-SNAP enable calcium entry via Orai1 channels” (PLoS ONE, 2021).
